# In PubChem BioAssay AID686979 (National Center for Advancing Translational Sciences (NCATS), 2013):
# Values joined by “and” are separate entries in the source; they are usually repeats but may differ in a detail not shown here. Equal values may be shown once. Among all 420,000 compounds or so, about 50,000 (12%) were called active. Inconclusive means that the source gave no clear call. Such entries were picked first, then a sample of the others. Calls follow the shape of the dose curve; as a rule, active = well fitted inhibition curve with a large enough effect; inconclusive = small, poorly fitted or top-dose-only effect; inactive = flat fitted curve, though single readings scatter. Where the call is inconclusive, the potency comes from a doubtful curve fit. Where a structure was tested more than once in an assay, its records may differ in their call.
# Assay: qHTS for Inhibitors of human tyrosyl-DNA phosphodiesterase 1 (TDP1): qHTS in cells in presence of CPT; also: nearly all actives have a fitted effect of over 55% in size
# Conditions: chicken DT40 Tdp1-/-;hTDP1 cells + 20 nM CPT, ATP luminescence, 48 h; activity change, negative = growth inhibition: at 46.2 µM (top of the series) unless noted
# Method in brief: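 Chicken DT40 Tdp1-/- cells complemented with human TDP1, 400 cells/well, exposed to compounds plus 20 nM camptothecin for at least 48 h at 37 C; viability read as ATP content by CellTiter-Glo luminescence.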
# % is scaled to controls: 0 for no effect and ±100 for the full control effect; potency is read from the fitted curve at half-maximal effect; tags tell the direction and shape of the fitted curve.
SMILES,Potency,"activity change, negative = growth inhibition"
O=C(N/N=C/c1ccccc1O)NC12CC3CC(CC(C3)C1)C2,"inconclusive: 23.1 µM [inhibitor, single point]",–
Clc1cccc(/C=N/Nc2nnc(Cl)c3ccccc23)c1,"inconclusive: 20.6 µM [inhibitor, partial curve, poor fit]",–
COc1cc(OCc2ccc(C)cc2)ccc1CNC[C@H]1O[C@@H](n2cnc(C(N)=O)n2)[C@H](O)[C@@H]1O,inactive,–
O=C(CN1CCC(c2nc3ccccc3s2)CC1)NCc1cccs1,"inconclusive: 18.4 µM [inhibitor, single point]",–
Cc1ccccc1N1CCN(C(=O)c2ccccc2NC(=O)/C=C\C(=O)O)CC1,"inconclusive: 29.1 µM [inhibitor, single point]",–
Cc1ccc([C@@H]2C[C@H]3[C@@H](CN2S(=O)(=O)c2ccc(Cl)cc2)C(=O)C[C@@H](c2ccccc2)N3S(=O)(=O)c2ccc(C)cc2)cc1,inactive,–
Cn1nc([N+](=O)[O-])nc1N1CCN(c2ccc(F)cc2)CC1,inactive,–
CC(C)C(=O)N1CCN(c2ccc(NC(=O)c3cccs3)cc2)CC1,"inconclusive: 32.6 µM [inhibitor, single point]",–
O=C(CCN1C(=O)C2CC=CCC2C1=O)Nc1cc(C(F)(F)F)ccc1N1CCCC1 (stereo not given),"inconclusive: 18.4 µM [inhibitor, single point]",–
C=CCn1c(SCC(=O)c2ccccc2)nnc1-c1ccc2c(c1)OCO2,"inconclusive: 29.1 µM [inhibitor, single point]",–
CCCCC(CC)COC(=O)C(C#N)=C(c1ccccc1)c1ccccc1 (stereo not given),"inconclusive: 23.7 µM [inhibitor, single point] and inconclusive: 18.4 µM [inhibitor, single point]",–
COc1cccc(CNC(=O)C(=O)NCCC2CCCCN2S(=O)(=O)c2ccccc2)c1 (stereo not given),"inconclusive: 20.6 µM [inhibitor, single point]",–
O=C(CN1CCN(S(=O)(=O)c2ccc(Cl)cc2)CC1)c1ccc(O)c(O)c1,active: 11.6 µM,–
O=C(Nc1ccccc1N1CCN(C(=O)c2ccccc2)CC1)c1cc2ccccc2o1,"inconclusive: 29.1 µM [inhibitor, single point]",–
O=C(CCc1ccccc1)Nc1nnc(-c2cccs2)o1,inactive,–
O=C(CNC(=O)c1ccccc1F)OCc1nc2ccc(Cl)cc2n1CCO,inactive,–
Cc1ccc(/C=c2\sc3nc(-c4cccnc4)nn3c2=O)cc1,"inconclusive: 14.6 µM [inhibitor, partial curve]",–
CC1Cc2ccccc2N1C(=O)CNc1cccc(S(=O)(=O)N2CCCC2)c1 (stereo not given),active: 14.6 µM,–
CC1(c2nnc(Cc3ccccc3)o2)CC(c2ccc(Br)cc2)=NO1 (stereo not given),"inconclusive: 32.6 µM [inhibitor, single point]",–
Nn1cnc2scc(-c3ccc(Cl)cc3)c2c1=O,inactive,–
Nc1c2c(nc3ccccc13)CCCC2,inactive and active: 16.8 µM,–
COc1ccc(N2C(=O)CC(N3CCN(S(=O)(=O)c4ccc(Cl)cc4)CC3)C2=O)cc1 (stereo not given),inactive,–
CC(=O)Nc1ccc(N2C(=O)CSC2c2ccccc2)cc1 (stereo not given),inactive,–
CCOC(=O)/C(=N\Nc1cc(Cl)ccc1Cl)N1CCOCC1,inactive,–

SMILES,Potency,"activity change, negative = growth inhibition"
Nc1nn(-c2ccccc2)c(N)c1N=Nc1ccccc1F,active: 9.2 µM,–
COc1ccc(C(=O)NCCCCCCNC(=O)c2ccc(OC)cc2)cc1,inactive,–
CCOC(=O)c1cc2c(OC)ccc(OC)c2n1CC(=O)c1ccccc1,"inconclusive: 29.1 µM [inhibitor, single point]",–
CC1Cc2[nH]c(=S)[nH]c(=O)c2C(C)O1 (stereo not given),inactive,–
CCCCn1nnc(N(C(=O)c2cccs2)C(=O)c2cccs2)n1,"inconclusive: 18.4 µM [inhibitor, single point]",–
COc1cc(C)c(CN2CCC(n3nccc3NC(=O)C3CCOC3)CC2)cc1C (stereo not given),inactive,–
CC1CCC2(CC1)NC(=O)N(CC(=O)c1ccc[nH]1)C2=O (stereo not given),"inconclusive: 0.58 µM [inhibitor, full curve, poor fit]",–
Cc1ccc2c(c1)c1c3n2CC(=C2C(=O)OC(C)(C)OC2=O)NC3CCC1 (stereo not given),active: 20.6 µM,–
C=CCn1c(-c2cc(OC)c(OC)c(OC)c2)n[nH]c1=S,–,inconclusive: -21% [inhibitor]
c1ccc(-c2cn(-c3ccccc3)c3ncnc(N4CCCCC4)c23)cc1,active: 9.2 µM,–
Cc1ccc2cc(CN(CC3CCCO3)C(=S)NCc3ccco3)c(=O)[nH]c2c1C (stereo not given),"inconclusive: 23.1 µM [inhibitor, single point]",–
O=C(NCC1CCCO1)c1ccccc1-c1nc(-c2ccc(F)cc2)no1 (stereo not given),"inconclusive: 29.1 µM [inhibitor, single point]",–
CCOC(=O)c1ccc(NC(=O)CN2C(=O)NC3(CCCCCC3)C2=O)cc1,"inconclusive: 20.6 µM [inhibitor, single point]",–
CC(=O)c1ccc(N2CCN(C(=O)NCc3noc4ccc(C)cc34)CC2)cc1,"inconclusive: 29.1 µM [inhibitor, single point]",–
COC(=O)CCc1sc(Nc2ccc(OC)cc2)nc1-c1ccc(OC)cc1,"inconclusive: 29.1 µM [inhibitor, single point]",–
Cc1ccc(Nc2c([N+](=O)[O-])c(=O)n(C)c3ccccc23)cc1,"inconclusive: 11.6 µM [inhibitor, partial curve, poor fit]",–
CN(C)S(=O)(=O)c1cc(NC(=O)c2cc(=O)c3ccccc3o2)ccc1Cl,"inconclusive: 20.6 µM [inhibitor, single point]",–
Cc1noc(-c2ccccc2OCC(=O)Nc2cccc([N+](=O)[O-])c2)n1,"inconclusive: 20.6 µM [inhibitor, single point]",–
C[C@@H](C(=O)NCCc1c[nH]c2ccccc12)[C@@H]1C[C@@]1(C)[C@@H](NC(=O)OCc1ccccc1)c1ccccc1,active: 13 µM,–
O=C(NNC(=O)c1ccccc1F)c1ccc(S(=O)(=O)N2CCCCC2)cc1,inactive,–
CCCCN(C(=O)C(CCSC)N1C(=O)c2ccccc2C1=O)c1c(N)n(CCC)c(=O)[nH]c1=O (stereo not given),inactive,–
CC1CCCN(c2c3c(nc4ccccc24)CCCC3)C1 (stereo not given),"inconclusive: 29.1 µM [inhibitor, single point]",–
Cc1ccc(S(=O)(=O)Nc2ccccc2NS(=O)(=O)c2ccc(C)cc2)cc1,inactive,–
Cc1cc(C)nc(NNC2=CC(=O)CC(C)(C)C2)n1,"inconclusive: 18.4 µM [inhibitor, single point]",–

SMILES,Potency,"activity change, negative = growth inhibition"
COc1ccc(C2/C=C\CN(C(=O)OCc3ccccc3)CC(=O)N2Cc2ccc(F)cc2)cc1 (stereo not given),"inconclusive: 29.1 µM [inhibitor, single point]",–
O=S1(=O)NC[C@]23C[C@H](c4ccc(F)cc4)[C@@H](C[C@@H]21)O3,inactive,–
O=C(CS(=O)c1ccccc1[N+](=O)[O-])Oc1ccc(Br)cc1 (stereo not given),inactive,–
CS(=O)(=O)N1CCc2cc(S(=O)(=O)N3CCN(Cc4ccc5c(c4)OCO5)CC3)ccc21,"inconclusive: 18.4 µM [inhibitor, single point]",–
COC(=O)c1c(NC(=O)Cc2cccs2)sc(C)c1C,inactive,–
O=C(COC(=O)c1ccc([N+](=O)[O-])o1)Nc1ccc2c(c1)OC(F)(F)O2,inactive,–
CC(C)CC(=O)Nc1ccccc1-c1nnn(CC(=O)N2CCOCC2)n1,inactive,–
COc1cc(/C=C(\C#N)c2[nH]nc(N)c2C#N)cc(OC)c1O,"inconclusive: 23.1 µM [inhibitor, partial curve]",–
CCOC(=O)C1CCCN(S(=O)(=O)c2ccc3[nH]c(=O)ccc3c2)C1 (stereo not given),inactive,–
COC(=O)c1c(NC(=O)c2ccc(S(=O)(=O)N3CC(C)OC(C)C3)cc2)sc2c1CCN(C)C2 (stereo not given),"inconclusive: 23.1 µM [inhibitor, single point]",–
CCc1ccc2[nH]c(=O)c(C(c3nnnn3Cc3ccco3)N3CCC(C)CC3)cc2c1 (stereo not given),"inconclusive: 29.1 µM [inhibitor, single point]",–
O=C1Cc2ccccc2C(=O)N1c1ccccc1,"inconclusive: 18.4 µM [inhibitor, single point]",–
NNC(=O)CNC(c1ccccc1)c1cc(Br)ccc1NC(=O)c1cccc(Cl)c1 (stereo not given),"inconclusive: 29.1 µM [inhibitor, single point]",–
Cc1ccc(C)c(N(C)C(=O)C2CCN(S(=O)(=O)c3cccc4nsnc34)CC2)c1,active: 16.4 µM,–
O=C(CCl)N1CCN(S(=O)(=O)c2ccc3ccccc3c2)CC1,active: 3.26 µM,–
COc1ccc(-c2nnn3c2nc(N2CCCC(C)C2)c2ccccc23)cc1 (stereo not given),"inconclusive: 23.1 µM [inhibitor, single point]",–
CC(=O)c1cc(C(=O)Nc2cccc(C)c2)c2ccccn12,"inconclusive: 29.1 µM [inhibitor, single point]",–
Cc1cc(C(=O)Nc2ccccc2Cl)n(-c2ccccc2)n1,"inconclusive: 9.2 µM [inhibitor, partial curve]",–
COc1cc(C(=O)NC(=S)Nc2nccs2)cc(OC)c1OC,"inconclusive: 18.4 µM [inhibitor, single point]",–
CCCC(=O)N1CCCC1(C)C(=O)N(C)Cc1cccc2ccccc12 (stereo not given),"inconclusive: 25.9 µM [inhibitor, single point]",–
O=C(NC1CC1)C1=C[C@H](c2ccc(Br)cc2)C[C@H](OCc2ccc(CO)cc2)O1,active: 23.1 µM,–
CCN1c2ccccc2-c2nc(SCC(=O)Nc3ccc(C)c(Cl)c3)ncc2S1(=O)=O,"inconclusive: 29.1 µM [inhibitor, single point]",–
